# According to paper PMC4242493:
# The other results are listed elsewhere or left out. The list includes weakly bound sequences.
# Target: MaxL homodimer (UniProt P61244)
# Test: universal protein-binding microarray (PBM)
# Conditions: PBS-based mixture, 10 nM His-tagged protein dimer, 2% milk, 200 ng/uL BSA, 50 ng/uL salmon testes DNA, 0.02% TX-100; detection with Alexa 488 anti-His …; high values mean tight binding; most listed sequences are background and not binding sites; double strand, one strand shown
# UniProt P61244, sequence (P61244 whole entry): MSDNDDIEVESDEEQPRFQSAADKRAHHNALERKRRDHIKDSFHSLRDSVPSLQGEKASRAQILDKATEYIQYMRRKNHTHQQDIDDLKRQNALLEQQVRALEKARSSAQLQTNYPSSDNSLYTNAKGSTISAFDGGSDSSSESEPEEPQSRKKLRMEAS
row,Sequence,binding signal (normalized occupancy)
1,TAGGCGCA,0.074
2,GCCGTACC,0.0685
3,ACGGTCTC,0.075
4,TCTCAACA,0.0757
5,TAAGATGA,0.0854
6,CGATATAA,0.0803
7,GCTGCAGA,0.0714
8,ATCATATG,0.0972
9,AGCTCCAT,0.0804
10,ACGACAGG,0.0762
11,GACTTGAA,0.072
12,AGCCAGGG,0.0688
13,AGATAGAT,0.075
14,CAATTACA,0.0821
15,AACCGTGA,0.0752
16,ACGTGAAG,0.1
17,ACGCGGGA,0.0824
18,AGTGATAG,0.077
19,GACCCCCC,0.0797
20,CGGCATAC,0.0757
21,GAGAGAAA,0.0682
22,ATAAGGCC,0.0798

row,Sequence,binding signal (normalized occupancy)
1,AGTGTTCA,0.0774
2,CGGTCGGC,0.0666
3,AACACGGT,0.0777
4,ATATTCAT,0.0918
5,GAATCAAA,0.0719
6,CACGTCGC,0.0825
7,GTCTTACA,0.0841
8,GCGGTCGA,0.0706
9,TAGCCAGA,0.0697
10,GCAGCGAA,0.0696
11,GCCCGAGC,0.0631
12,GCGGAAGC,0.067
13,CTCCATAC,0.0816
14,CATCCCTA,0.0814
15,TGCATACA,0.085
16,CTAGGTGC,0.0748
17,CGATTGTA,0.0764
18,AACCATGC,0.106
19,AACTAACG,0.0728
20,AACATATA,0.0841
21,ACCAGAGC,0.0672
22,AATTCGAG,0.0732

row,Sequence,binding signal (normalized occupancy)
1,CCTACGAG,0.0758
2,CTTCTGAA,0.0708
3,TGATCCCA,0.0817
4,ACCTAGAA,0.0705
5,ATCGCTCA,0.0718
6,CGCGCGTA,0.0797
7,ACCATGGT,0.0862
8,AACCTCTT,0.0692
9,CTAGAATA,0.0796
10,AGATCAGA,0.0731
11,ATCGGTCC,0.0713
12,AAAGTTGC,0.0762
13,ACGTAATC,0.086
14,TGCTACCA,0.0792
15,CGATGTGA,0.0833
16,AACTTTAG,0.0721
17,CAATTCAC,0.0739
18,TCGAGCGA,0.0735
19,CGCCCCAC,0.0804
20,AGATGTAC,0.0766
21,GAGTCCCA,0.0709
22,AGGGTTGA,0.0746

row,Sequence,binding signal (normalized occupancy)
1,CCGACCTA,0.0702
2,TATGGAAA,0.0788
3,GTGGGGGA,0.0922
4,GCCTATAC,0.0748
5,CATTCATC,0.0811
6,GCGGGCGA,0.0715
7,ACCGTTCC,0.0693
8,CTGCATGC,0.1
9,ATATACAG,0.0826
10,GTCCCTTA,0.0792
11,CCAGGACC,0.0711
12,CGTCGAGA,0.0693
13,ATGGGGTA,0.0853
14,CTCCACAC,0.0843
15,CTCAGGGA,0.0699
16,AAAGACCT,0.0705
17,AAGAATCA,0.0773
18,GCGATGGA,0.0705
19,CCTGAAAA,0.0734
20,AATGAATA,0.0826
21,CAGGCTGG,0.074
22,AACATGGC,0.0896

row,Sequence,binding signal (normalized occupancy)
1,CCGTATCA,0.078
2,TCTTGTCA,0.0763
3,AGCTGCGC,0.0641
4,ACCCGTCA,0.0779
5,CAAGATCA,0.0787
6,ACTCAGCC,0.074
7,AGGGTGCA,0.0789
8,CTTACTTC,0.0757
9,AACGATAT,0.0816
10,CCTAGACC,0.0776
11,CAACACAG,0.0749
12,AGGTTAGG,0.0789
13,GTCGGGAA,0.0752
14,AGCCGATG,0.0684
15,ACTACCTG,0.0775
16,ACGTTTTC,0.0866
17,CGTGTCAC,0.0878
18,AGGGTATA,0.0798
19,CCTGTAGA,0.0762
20,CTTGGGCA,0.0737
21,ATTCACTG,0.0715
